# Assay results taken from the supplement of paper PMC8728848.
# The list shows a part of the results.
# Tests used:
# Assay in all cases: glycan array binding signal (z-score within array); higher = stronger binding
# Conditions in all cases: glycan notation: IUPAC condensed, linker removed
# [1] = biological target: Neu5Ac(a2-3)Gal(b1-4)[Fuc(a1-3)]GlcNAc6S
# Method in brief: (§1)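 Glycan array binding is given as a within-array Z-score, which can be read as non-binding when negative. The arrays, 3228 of them, came from the Consortium for Functional Glycomics database and were retained only where the protein sequence was available. Z-scores were averaged across arrays of the same protein sequence at different concentrations or buffers and across linkers.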
# [2] = biological target: Neu5Ac(a2-3)Gal6S(b1-4)GlcNAc
# Method in brief: as §1
# [3] = biological target: Neu5Ac(a2-3)Gal6S(b1-4)[Fuc(a1-3)]GlcNAc
# Method in brief: as §1
# Neu5Ac(a2-3)GalNAc = biological target: Neu5Ac(a2-3)GalNAc
# Method in brief: as §1
# [4] = biological target: Neu5Ac(a2-3)GalNAc(b1-4)GlcNAc
# Method in brief: as §1
# [5] = biological target: Neu5Ac(a2-3)[GalNAc(b1-4)]Gal(b1-4)Glc
# Method in brief: as §1
# [6] = biological target: Neu5Ac(a2-3)[GalNAc(b1-4)]Gal(b1-4)GlcNAc
# Method in brief: as §1
# [7] = biological target: Neu5Ac(a2-3)[Neu5Ac(a2-6)]GalNAc
# Method in brief: as §1
# Neu5Ac(a2-6)Gal = biological target: Neu5Ac(a2-6)Gal
# Method in brief: as §1
# Neu5Ac(a2-6)Gal(b1-4)Glc = biological target: Neu5Ac(a2-6)Gal(b1-4)Glc
# Method in brief: as §1
# [8] = biological target: Neu5Ac(a2-6)Gal(b1-4)GlcNAc
# Method in brief: as §1
# [9] = biological target: Neu5Ac(a2-6)Gal(b1-4)GlcNAc(b1-2)Man(a1-3)[Neu5Ac(a2-6)Gal(b1-4)GlcNAc(b1-2)Man(a1-6)]Man(b1-4)GlcNAc(b1-4)GlcNAc
# Method in brief: as §1
# [10] = biological target: Neu5Ac(a2-6)Gal(b1-4)GlcNAc(b1-3)Gal(b1-4)GlcNAc
# Method in brief: as §1
# [11] = biological target: Neu5Ac(a2-6)Gal(b1-4)GlcNAc(b1-3)Gal(b1-4)[Fuc(a1-3)]GlcNAc(b1-3)Gal(b1-4)[Fuc(a1-3)]GlcNAc
# Method in brief: as §1
# [12] = biological target: Neu5Ac(a2-6)Gal(b1-4)GlcNAc6S
# Method in brief: as §1
# Neu5Ac(a2-6)GalNAc = biological target: Neu5Ac(a2-6)GalNAc
# Method in brief: as §1
# [13] = biological target: Neu5Ac(a2-6)GalNAc(b1-4)GlcNAc
# Method in brief: as §1
# Neu5Ac(a2-8)Neu5Ac = biological target: Neu5Ac(a2-8)Neu5Ac
# Method in brief: as §1
# [14] = biological target: Neu5Ac(a2-8)Neu5Ac(a2-3)Gal(b1-4)Glc
# Method in brief: as §1
# [15] = biological target: Neu5Ac(a2-8)Neu5Ac(a2-3)[GalNAc(b1-4)]Gal(b1-4)Glc
# Method in brief: as §1
# [16] = biological target: Neu5Ac(a2-8)Neu5Ac(a2-8)Neu5Ac
# Method in brief: as §1
# [17] = biological target: Neu5Ac(a2-8)Neu5Ac(a2-8)Neu5Ac(a2-3)Gal(b1-4)Glc
# Method in brief: as §1
# [18] = biological target: Neu5Ac(a2-8)Neu5Ac(a2-8)Neu5Ac(a2-3)[GalNAc(b1-4)]Gal(b1-4)Glc
# Method in brief: as §1
# [19] = biological target: Neu5Ac(a2-8)Neu5Ac(a2-8)Neu5Ac(a2-8)Neu5Ac(a2-3)[GalNAc(b1-4)]Gal(b1-4)Glc
# Method in brief: as §1
# Neu5Ac(b1-6)GalNAc = biological target: Neu5Ac(b1-6)GalNAc
# Method in brief: as §1
# [20] = biological target: Neu5Ac(b2-6)Gal(b1-4)GlcNAc
# Method in brief: as §1
# [21] = biological target: Neu5Ac9Ac(a2-6)Gal(b1-4)GlcNAc
# Method in brief: as §1
# [22] = biological target: Neu5Gc(a2-3)Gal(b1-3)GlcNAc
# Method in brief: as §1
# [23] = biological target: Neu5Gc(a2-3)Gal(b1-3)[Fuc(a1-4)]GlcNAc
# Method in brief: as §1
# Neu5Gc(a2-3)Gal(b1-4)Glc = biological target: Neu5Gc(a2-3)Gal(b1-4)Glc
# Method in brief: as §1
# [24] = biological target: Neu5Gc(a2-3)Gal(b1-4)GlcNAc
# Method in brief: as §1
# [25] = biological target: Neu5Gc(a2-3)Gal(b1-4)[Fuc(a1-3)]GlcNAc
# Method in brief: as §1
# [26] = biological target: Neu5Gc(a2-6)Gal(b1-4)GlcNAc
# Method in brief: as §1
# Neu5Gc(a2-6)GalNAc = biological target: Neu5Gc(a2-6)GalNAc
# Method in brief: as §1
binder,measurement,setting,value
"DCAL1 (Homo sapiens), Q8IZS7 (protein) MVSNFFHVIQVFEKSATLISKTEHIGFVIYSWRKSTTHLGSRRKFAISIYLSEVSLQKYDCPFSGTSFVVFSLFLICAMAGDVVYADIKTVRTSPLELAFPLQRSVSFNFSTVHKSCPAKDWKVHKGKCYWIAETKKSWNKSQNDCAINNSYLMVIQDITAMVRFNI",glycan array binding signal (z-score),[1],-0.181
same,glycan array binding signal (z-score),[2],-0.159
same,glycan array binding signal (z-score),[3],-0.155
same,glycan array binding signal (z-score),Neu5Ac(a2-3)GalNAc,-0.273
same,glycan array binding signal (z-score),[4],-0.21
same,glycan array binding signal (z-score),[5],-0.321
same,glycan array binding signal (z-score),[6],-0.221
same,glycan array binding signal (z-score),[7],-0.241
same,glycan array binding signal (z-score),Neu5Ac(a2-6)Gal,-0.275
same,glycan array binding signal (z-score),Neu5Ac(a2-6)Gal(b1-4)Glc,-0.221
same,glycan array binding signal (z-score),[8],-0.212
same,glycan array binding signal (z-score),[9],-0.205
same,glycan array binding signal (z-score),[10],-0.203
same,glycan array binding signal (z-score),[11],-0.132
same,glycan array binding signal (z-score),[12],-0.012
same,glycan array binding signal (z-score),Neu5Ac(a2-6)GalNAc,0.533
same,glycan array binding signal (z-score),[13],-0.309
same,glycan array binding signal (z-score),Neu5Ac(a2-8)Neu5Ac,-0.225
same,glycan array binding signal (z-score),[14],-0.146
same,glycan array binding signal (z-score),[15],-0.191
same,glycan array binding signal (z-score),[16],-0.264
same,glycan array binding signal (z-score),[17],-0.269
same,glycan array binding signal (z-score),[18],-0.202
same,glycan array binding signal (z-score),[19],-0.251
same,glycan array binding signal (z-score),Neu5Ac(b1-6)GalNAc,-0.293
same,glycan array binding signal (z-score),[20],-0.195
same,glycan array binding signal (z-score),[21],-0.257
same,glycan array binding signal (z-score),[22],-0.196
same,glycan array binding signal (z-score),[23],-0.296
same,glycan array binding signal (z-score),Neu5Gc(a2-3)Gal(b1-4)Glc,-0.225
same,glycan array binding signal (z-score),[24],-0.191
same,glycan array binding signal (z-score),[25],-0.29
same,glycan array binding signal (z-score),[26],-0.249
same,glycan array binding signal (z-score),Neu5Gc(a2-6)GalNAc,-0.132
